# Assay results from patent US12247058 (Bristol-Myers Squibb, dated 2025).
# T1: human β-klotho, stably co-expressed with the Elk1-luciferase trans-reporter in HEK293 cells (HEK Luc Clone2) (human, UniProt Q86Z14 1-1044)
# T1 sequence: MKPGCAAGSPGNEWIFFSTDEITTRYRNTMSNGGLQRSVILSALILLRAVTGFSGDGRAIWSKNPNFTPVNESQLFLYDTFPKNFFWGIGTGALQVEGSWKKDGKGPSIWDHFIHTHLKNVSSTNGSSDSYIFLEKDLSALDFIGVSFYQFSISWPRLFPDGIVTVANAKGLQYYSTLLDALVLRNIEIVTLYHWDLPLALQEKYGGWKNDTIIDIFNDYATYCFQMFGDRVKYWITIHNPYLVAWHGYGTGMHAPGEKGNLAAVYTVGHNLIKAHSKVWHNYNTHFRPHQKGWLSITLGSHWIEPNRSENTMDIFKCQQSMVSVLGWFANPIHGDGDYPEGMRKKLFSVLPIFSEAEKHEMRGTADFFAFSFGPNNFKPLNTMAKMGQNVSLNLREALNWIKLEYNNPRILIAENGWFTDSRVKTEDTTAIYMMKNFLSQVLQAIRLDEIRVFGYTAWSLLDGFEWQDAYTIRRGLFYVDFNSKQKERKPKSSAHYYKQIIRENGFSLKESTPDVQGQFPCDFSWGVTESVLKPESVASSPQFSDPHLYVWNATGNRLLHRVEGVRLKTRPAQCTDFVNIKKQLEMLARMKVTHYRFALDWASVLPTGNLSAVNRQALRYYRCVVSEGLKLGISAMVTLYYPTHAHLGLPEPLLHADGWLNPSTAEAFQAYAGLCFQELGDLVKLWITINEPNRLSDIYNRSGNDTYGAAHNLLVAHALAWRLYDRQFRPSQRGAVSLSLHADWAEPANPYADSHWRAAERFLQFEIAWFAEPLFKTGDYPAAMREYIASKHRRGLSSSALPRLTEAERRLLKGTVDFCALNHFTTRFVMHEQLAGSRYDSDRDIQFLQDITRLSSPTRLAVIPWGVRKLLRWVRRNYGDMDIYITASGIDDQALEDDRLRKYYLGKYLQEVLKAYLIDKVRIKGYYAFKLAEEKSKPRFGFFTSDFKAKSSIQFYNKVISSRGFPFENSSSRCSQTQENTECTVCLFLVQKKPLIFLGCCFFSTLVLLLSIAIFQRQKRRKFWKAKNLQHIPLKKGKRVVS
# B1: Compound 170 [Fc(hIgG1a_191)-L7-FGF21(Cmp. 2)] (Fc fusion)
# chain: [omitted - human IgG1 Fc]GGGGGSGGGSGGGGSHPIPDSSPLLQFGGQVRQRYLYTDDAQQTEAHLEIREDGTVGGAADQSPESLLQLKALKPGVIQILGVKTSRFLCQRPDGALYGSLHFDPEACSFRELLLEDGYNVYQSEAHGLPLHLGSGRGPARFLPLPGLPPAPPEPPGILAPQPPDVGSSDPLSMVEPSQGRSPSYAS
# B2: Compound 171 [Fc(hIgG1a_191)-L250-FGF21(Cmp. 2)] (Fc fusion)
# chain: [omitted - human IgG1 Fc]GGGGSGGGSGGGGGSGGGSGGGGSGGGSHPIPDSSPLLQFGGQVRQRYLYTDDAQQTEAHLEIREDGTVGGAADQSPESLLQLKALKPGVIQILGVKTSRFLCQRPDGALYGSLHFDPEACSFRELLLEDGYNVYQSEAHGLPLHLGSGRGPARFLPLPGLPPAPPEPPGILAPQPPDVGSSDPLSMVEPSQGRSPSYAS
# B3: Compound 172 [Fc(hIgG1a_191)-L12-FGF21(Cmp. 2)] (Fc fusion)
# chain: [omitted - human IgG1 Fc]PSPEPPTPEPPSPEPPTPEPPSPEPPTPEPHPIPDSSPLLQFGGQVRQRYLYTDDAQQTEAHLEIREDGTVGGAADQSPESLLQLKALKPGVIQILGVKTSRFLCQRPDGALYGSLHFDPEACSFRELLLEDGYNVYQSEAHGLPLHLGSGRGPARFLPLPGLPPAPPEPPGILAPQPPDVGSSDPLSMVEPSQGRSPSYAS
# B4: Compound 173 [Fc(hIgG1a_191)-L251-FGF21(Cmp. 2)] (Fc fusion)
# chain: [omitted - human IgG1 Fc]PSPEPPTPEPPSPEPHPIPDSSPLLQFGGQVRQRYLYTDDAQQTEAHLEIREDGTVGGAADQSPESLLQLKALKPGVIQILGVKTSRFLCQRPDGALYGSLHFDPEACSFRELLLEDGYNVYQSEAHGLPLHLGSGRGPARFLPLPGLPPAPPEPPGILAPQPPDVGSSDPLSMVEPSQGRSPSYAS
# B5: Compound 174 [Fc(hIgG1a_191)-L5-FGF21(Cmp. 2)] (Fc fusion)
# chain: [omitted - human IgG1 Fc]GSHHHHHHHHGSHPIPDSSPLLQFGGQVRQRYLYTDDAQQTEAHLEIREDGTVGGAADQSPESLLQLKALKPGVIQILGVKTSRFLCQRPDGALYGSLHFDPEACSFRELLLEDGYNVYQSEAHGLPLHLGSGRGPARFLPLPGLPPAPPEPPGILAPQPPDVGSSDPLSMVEPSQGRSPSYAS
# B6: Compound 175 [Fc(hIgG1a_191)-L252-FGF21(Cmp. 2)] (Fc fusion)
# chain: [omitted - human IgG1 Fc]ELQLEESAAEAQEGELEHPIPDSSPLLQFGGQVRQRYLYTDDAQQTEAHLEIREDGTVGGAADQSPESLLQLKALKPGVIQILGVKTSRFLCQRPDGALYGSLHFDPEACSFRELLLEDGYNVYQSEAHGLPLHLGSGRGPARFLPLPGLPPAPPEPPGILAPQPPDVGSSDPLSMVEPSQGRSPSYAS
# B7: Compound 176 [Fc(hIgG1a_190)-L253-FGF21(Cmp. 2)] (Fc fusion)
# chain: [omitted - human IgG1 Fc]SGGGGSGGGSGGGGGSHPIPDSSPLLQFGGQVRQRYLYTDDAQQTEAHLEIREDGTVGGAADQSPESLLQLKALKPGVIQILGVKTSRFLCQRPDGALYGSLHFDPEACSFRELLLEDGYNVYQSEAHGLPLHLGSGRGPARFLPLPGLPPAPPEPPGILAPQPPDVGSSDPLSMVEPSQGRSPSYAS
# B8: Compound 177 [Fc(hIgG1a_191)-L6-FGF21(Cmp. 2)] (Fc fusion)
# chain: [omitted - human IgG1 Fc]GGGGSGGGGSGGGGSHPIPDSSPLLQFGGQVRQRYLYTDDAQQTEAHLEIREDGTVGGAADQSPESLLQLKALKPGVIQILGVKTSRFLCQRPDGALYGSLHFDPEACSFRELLLEDGYNVYQSEAHGLPLHLGSGRGPARFLPLPGLPPAPPEPPGILAPQPPDVGSSDPLSMVEPSQGRSPSYAS
# B9: Compound 178 [Fc(hIgGla_189)-L6-FGF21(Cmp. 2)] (Fc fusion)
# chain: [omitted - human IgG1 Fc]GGSGGGGSGGGGSHPIPDSSPLLQFGGQVRQRYLYTDDAQQTEAHLEIREDGTVGGAADQSPESLLQLKALKPGVIQILGVKTSRFLCQRPDGALYGSLHFDPEACSFRELLLEDGYNVYQSEAHGLPLHLGSGRGPARFLPLPGLPPAPPEPPGILAPQPPDVGSSDPLSMVEPSQGRSPSYAS
# B10: Compound 179 [Fc(hIgG1a_191)-L7-FGF21-1aa(Cmp. 2 with the C-terminal amino acid deleted)] (Fc fusion)
# chain: [omitted - human IgG1 Fc]GGGGGSGGGSGGGGSHPIPDSSPLLQFGGQVRQRYLYTDDAQQTEAHLEIREDGTVGGAADQSPESLLQLKALKPGVIQILGVKTSRFLCQRPDGALYGSLHFDPEACSFRELLLEDGYNVYQSEAHGLPLHLGSGRGPARFLPLPGLPPAPPEPPGILAPQPPDVGSSDPLSMVEPSQGRSPSYA
# B11: Compound 180 [Fc(hIgGla_191)-L7-FGF21-3aa(Cmp. 2 with the three C-terminal amino acids deleted)] (Fc fusion)
# chain: [omitted - human IgG1 Fc]GGGGGSGGGSGGGGSHPIPDSSPLLQFGGQVRQRYLYTDDAQQTEAHLEIREDGTVGGAADQSPESLLQLKALKPGVIQILGVKTSRFLCQRPDGALYGSLHFDPEACSFRELLLEDGYNVYQSEAHGLPLHLGSGRGPARFLPLPGLPPAPPEPPGILAPQPPDVGSSDPLSMVEPSQGRSPS
# Biological target: T1, human β-klotho, stably co-expressed …
# Experiment: cell-based or functional assay
row,"Geometric Mean EC50, Elk1-luciferase assay",Binder
1,3.8 nM,B1
2,1.7 nM,B2
3,1.5 nM,B3
4,1.5 nM,B4
5,3.3 nM,B5
6,14.6 nM,B6
7,1.2 nM,B7
8,1.8 nM,B8
9,1.3 nM,B9
10,2.5 nM,B10
11,165 nM,B11
